In patent EP4755449A2:

B1: M103205H795-SG166/M103202L889-SK1 (antibody, human IgG1, kappa)
heavy: QVTLKESGPVLVKPTETLTLTCTVSGIDLSHDDISWVRQAPGKGLEWVGIISYAGSTYYASWAKGRLTISKDTSKNQVVLTMTNMDPVDTATYYCARGVPAYSHGGDLWGQGTLVTVSSASTKGPSVFPLAPSSKSTSGGTAALGCLVKDYFPEPVTVSWNSGALTSGVHTFPAVLQSSGLYSLSSVVTVPSSSLGTQTYICNVNHKPSNTKVDKKV[letters of human IgG1 Fc with G237D (EU numbers) not shown]
light: DIVMTQSPATLSLSPGERATLSCTSSQSVYHANWLSWFQQKPGQPPKLLIYWASTLAYGVPSRFSGSGSGTDFTLTISSLQPEDAATYYCAGGYGGGRYAFGQGTKVEIKRTVAAPSVFIFPPSDEQLKSGTASVVCLLNNFYPREAKVQWKVDNALQSGNSQESVTEQDSKDSTYSLSSTLTLSKADYEKHKVYACEVTHQGLSSPVTKSFNRGEC
B2: M103205H795-SG167/M103202L889-SK1 (antibody, human IgG1, kappa)
heavy: QVTLKESGPVLVKPTETLTLTCTVSGIDLSHDDISWVRQAPGKGLEWVGIISYAGSTYYASWAKGRLTISKDTSKNQVVLTMTNMDPVDTATYYCARGVPAYSHGGDLWGQGTLVTVSSASTKGPSVFPLAPSSKSTSGGTAALGCLVKDYFPEPVTVSWNSGALTSGVHTFPAVLQSSGLYSLSSVVTVPSSSLGTQTYICNVNHKPSNTKVDKKV[letters of human IgG1 Fc with P238Y (EU numbers) not shown]
light: B1 light
B3: M103205H795-SG168/M103202L889-SK1 (antibody, human IgG1, kappa)
heavy: QVTLKESGPVLVKPTETLTLTCTVSGIDLSHDDISWVRQAPGKGLEWVGIISYAGSTYYASWAKGRLTISKDTSKNQVVLTMTNMDPVDTATYYCARGVPAYSHGGDLWGQGTLVTVSSASTKGPSVFPLAPSSKSTSGGTAALGCLVKDYFPEPVTVSWNSGALTSGVHTFPAVLQSSGLYSLSSVVTVPSSSLGTQTYICNVNHKPSNTKVDKKV[letters of human IgG1 Fc with P238E (EU numbers) not shown]
light: B1 light
B4: M103205H795-SG169/M103202L889-SK1 (antibody, human IgG1, kappa)
heavy: QVTLKESGPVLVKPTETLTLTCTVSGIDLSHDDISWVRQAPGKGLEWVGIISYAGSTYYASWAKGRLTISKDTSKNQVVLTMTNMDPVDTATYYCARGVPAYSHGGDLWGQGTLVTVSSASTKGPSVFPLAPSSKSTSGGTAALGCLVKDYFPEPVTVSWNSGALTSGVHTFPAVLQSSGLYSLSSVVTVPSSSLGTQTYICNVNHKPSNTKVDKKV[letters of human IgG1 Fc with P238M (EU numbers) not shown]
light: B1 light
B5: M103205H795-SG170/M103202L889-SK1 (antibody, human IgG1, kappa)
heavy: QVTLKESGPVLVKPTETLTLTCTVSGIDLSHDDISWVRQAPGKGLEWVGIISYAGSTYYASWAKGRLTISKDTSKNQVVLTMTNMDPVDTATYYCARGVPAYSHGGDLWGQGTLVTVSSASTKGPSVFPLAPSSKSTSGGTAALGCLVKDYFPEPVTVSWNSGALTSGVHTFPAVLQSSGLYSLSSVVTVPSSSLGTQTYICNVNHKPSNTKVDKKV[letters of human IgG1 Fc with P238Q (EU numbers) not shown]
light: B1 light
B6: M103205H795-SG171/M103202L889-SK1 (antibody, human IgG1, kappa)
heavy: QVTLKESGPVLVKPTETLTLTCTVSGIDLSHDDISWVRQAPGKGLEWVGIISYAGSTYYASWAKGRLTISKDTSKNQVVLTMTNMDPVDTATYYCARGVPAYSHGGDLWGQGTLVTVSSASTKGPSVFPLAPSSKSTSGGTAALGCLVKDYFPEPVTVSWNSGALTSGVHTFPAVLQSSGLYSLSSVVTVPSSSLGTQTYICNVNHKPSNTKVDKKV[letters of human IgG1 Fc with S239P (EU numbers) not shown]
light: B1 light
B7: M103205H795-SG172/M103202L889-SK1 (antibody, human IgG1, kappa)
heavy: QVTLKESGPVLVKPTETLTLTCTVSGIDLSHDDISWVRQAPGKGLEWVGIISYAGSTYYASWAKGRLTISKDTSKNQVVLTMTNMDPVDTATYYCARGVPAYSHGGDLWGQGTLVTVSSASTKGPSVFPLAPSSKSTSGGTAALGCLVKDYFPEPVTVSWNSGALTSGVHTFPAVLQSSGLYSLSSVVTVPSSSLGTQTYICNVNHKPSNTKVDKKV[letters of human IgG1 Fc with V266F (EU numbers) not shown]
light: B1 light
B8: M103205H795-SG173/M103202L889-SK1 (antibody, human IgG1, kappa)
heavy: QVTLKESGPVLVKPTETLTLTCTVSGIDLSHDDISWVRQAPGKGLEWVGIISYAGSTYYASWAKGRLTISKDTSKNQVVLTMTNMDPVDTATYYCARGVPAYSHGGDLWGQGTLVTVSSASTKGPSVFPLAPSSKSTSGGTAALGCLVKDYFPEPVTVSWNSGALTSGVHTFPAVLQSSGLYSLSSVVTVPSSSLGTQTYICNVNHKPSNTKVDKKV[letters of human IgG1 Fc with S267L (EU numbers) not shown]
light: B1 light
B9: M103205H795-SG174/M103202L889-SK1 (antibody, human IgG1, kappa)
heavy: QVTLKESGPVLVKPTETLTLTCTVSGIDLSHDDISWVRQAPGKGLEWVGIISYAGSTYYASWAKGRLTISKDTSKNQVVLTMTNMDPVDTATYYCARGVPAYSHGGDLWGQGTLVTVSSASTKGPSVFPLAPSSKSTSGGTAALGCLVKDYFPEPVTVSWNSGALTSGVHTFPAVLQSSGLYSLSSVVTVPSSSLGTQTYICNVNHKPSNTKVDKKV[letters of human IgG1 Fc with S267H (EU numbers) not shown]
light: B1 light
B10: M103205H795-SG175/M103202L889-SK1 (antibody, human IgG1, kappa)
heavy: QVTLKESGPVLVKPTETLTLTCTVSGIDLSHDDISWVRQAPGKGLEWVGIISYAGSTYYASWAKGRLTISKDTSKNQVVLTMTNMDPVDTATYYCARGVPAYSHGGDLWGQGTLVTVSSASTKGPSVFPLAPSSKSTSGGTAALGCLVKDYFPEPVTVSWNSGALTSGVHTFPAVLQSSGLYSLSSVVTVPSSSLGTQTYICNVNHKPSNTKVDKKV[letters of human IgG1 Fc with N325F (EU numbers) not shown]
light: B1 light
B11: M103205H795-SG176/M103202L889-SK1 (antibody, human IgG1, kappa)
heavy: QVTLKESGPVLVKPTETLTLTCTVSGIDLSHDDISWVRQAPGKGLEWVGIISYAGSTYYASWAKGRLTISKDTSKNQVVLTMTNMDPVDTATYYCARGVPAYSHGGDLWGQGTLVTVSSASTKGPSVFPLAPSSKSTSGGTAALGCLVKDYFPEPVTVSWNSGALTSGVHTFPAVLQSSGLYSLSSVVTVPSSSLGTQTYICNVNHKPSNTKVDKKV[letters of human IgG1 Fc with N325I (EU numbers) not shown]
light: B1 light
B12: M103205H795-SG177/M103202L889-SK1 (antibody, human IgG1, kappa)
heavy: QVTLKESGPVLVKPTETLTLTCTVSGIDLSHDDISWVRQAPGKGLEWVGIISYAGSTYYASWAKGRLTISKDTSKNQVVLTMTNMDPVDTATYYCARGVPAYSHGGDLWGQGTLVTVSSASTKGPSVFPLAPSSKSTSGGTAALGCLVKDYFPEPVTVSWNSGALTSGVHTFPAVLQSSGLYSLSSVVTVPSSSLGTQTYICNVNHKPSNTKVDKKV[letters of human IgG1 Fc with N325L (EU numbers) not shown]
light: B1 light
B13: M103205H795-SG178/M103202L889-SK1 (antibody, human IgG1, kappa)
heavy: QVTLKESGPVLVKPTETLTLTCTVSGIDLSHDDISWVRQAPGKGLEWVGIISYAGSTYYASWAKGRLTISKDTSKNQVVLTMTNMDPVDTATYYCARGVPAYSHGGDLWGQGTLVTVSSASTKGPSVFPLAPSSKSTSGGTAALGCLVKDYFPEPVTVSWNSGALTSGVHTFPAVLQSSGLYSLSSVVTVPSSSLGTQTYICNVNHKPSNTKVDKKV[letters of human IgG1 Fc with N325E (EU numbers) not shown]
light: B1 light

Biological target: cyno Fc gamma RIIIaS extracellular domain, His-tagged (cynomolgus monkey) (UniProt Q8SPW2)
Assay: SPR 25C

Sequence of UniProt Q8SPW2 (Q8SPW2 other isoform, or with tags, fused parts or gaps): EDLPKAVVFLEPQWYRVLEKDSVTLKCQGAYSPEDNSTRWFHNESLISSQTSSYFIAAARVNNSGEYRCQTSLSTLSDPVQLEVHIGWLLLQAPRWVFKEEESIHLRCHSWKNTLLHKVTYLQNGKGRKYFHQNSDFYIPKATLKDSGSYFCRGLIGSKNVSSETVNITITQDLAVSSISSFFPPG

Row | Binder | relative binding [SG1=100]
1 | B1 | 5
2 | B2 | 14
3 | B3 | 13
4 | B4 | 22
5 | B5 | 12
6 | B6 | 8
7 | B7 | 31
8 | B8 | 24
9 | B9 | 15
10 | B10 | 8
11 | B11 | 20
12 | B12 | 21
13 | B13 | 36

Biological target: cyno Fc gamma RIIa1 extracellular domain, His-tagged (cynomolgus monkey)
Assay: SPR 25C

Row | Binder | relative binding [SG1=100]
14 | B1 | 10
15 | B2 | 18
16 | B3 | 21
17 | B4 | 17
18 | B5 | 16
19 | B6 | 17
20 | B7 | 14
21 | B8 | 13
22 | B9 | 13
23 | B10 | 13
24 | B11 | 14
25 | B12 | 15
26 | B13 | 22

Biological target: cyno Fc gamma RIIa2 extracellular domain, His-tagged (cynomolgus monkey)
Assay: SPR 25C

Row | Binder | relative binding [SG1=100]
27 | B1 | 10
28 | B2 | 14
29 | B3 | 16
30 | B4 | 16
31 | B5 | 15
32 | B6 | 20
33 | B7 | 17
34 | B8 | 14
35 | B9 | 16
36 | B10 | 13
37 | B11 | 15
38 | B12 | 15
39 | B13 | 21

Biological target: cyno Fc gamma RIIa3 extracellular domain, His-tagged (cynomolgus monkey)
Assay: SPR 25C

Row | Binder | relative binding [SG1=100]
40 | B1 | 17
41 | B2 | 38
42 | B3 | 30
43 | B4 | 32
44 | B5 | 21
45 | B6 | 18
46 | B7 | 27
47 | B8 | 21
48 | B9 | 20
49 | B10 | 17
50 | B11 | 19
51 | B12 | 25
52 | B13 | 29

Biological target: cyno Fc gamma RIIb extracellular domain, His-tagged (cynomolgus monkey)
Assay: SPR 25C

Sequence of cyno Fc gamma RIIb extracellular domain, His-tagged (cynomolgus monkey) (chain, as listed by the source): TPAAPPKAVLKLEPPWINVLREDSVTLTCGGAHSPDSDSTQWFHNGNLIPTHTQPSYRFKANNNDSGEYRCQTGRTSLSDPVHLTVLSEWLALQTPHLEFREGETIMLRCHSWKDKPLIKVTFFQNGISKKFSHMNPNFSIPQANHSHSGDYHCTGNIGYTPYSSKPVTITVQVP

Row | Binder | relative binding [SG1=100]
53 | B1 | 8
54 | B2 | 22
55 | B3 | 28
56 | B4 | 22
57 | B5 | 18
58 | B6 | 20
59 | B7 | 16
60 | B8 | 12
61 | B9 | 11
62 | B10 | 14
63 | B11 | 16
64 | B12 | 18
65 | B13 | 26
